In all, about 310,000 compounds went through this assay and about 2,200 (0.71%) showed an effect of 50% or more. Effects have a minus sign here. The list shows a part of the results.
target: human ether-à-go-go-related gene (hERG) potassium channel (human, UniProt Q12809); assay: primary screen, population patch clamp on CHO cells stably expressing hERG
Sequence (Q12809 whole entry, looked up): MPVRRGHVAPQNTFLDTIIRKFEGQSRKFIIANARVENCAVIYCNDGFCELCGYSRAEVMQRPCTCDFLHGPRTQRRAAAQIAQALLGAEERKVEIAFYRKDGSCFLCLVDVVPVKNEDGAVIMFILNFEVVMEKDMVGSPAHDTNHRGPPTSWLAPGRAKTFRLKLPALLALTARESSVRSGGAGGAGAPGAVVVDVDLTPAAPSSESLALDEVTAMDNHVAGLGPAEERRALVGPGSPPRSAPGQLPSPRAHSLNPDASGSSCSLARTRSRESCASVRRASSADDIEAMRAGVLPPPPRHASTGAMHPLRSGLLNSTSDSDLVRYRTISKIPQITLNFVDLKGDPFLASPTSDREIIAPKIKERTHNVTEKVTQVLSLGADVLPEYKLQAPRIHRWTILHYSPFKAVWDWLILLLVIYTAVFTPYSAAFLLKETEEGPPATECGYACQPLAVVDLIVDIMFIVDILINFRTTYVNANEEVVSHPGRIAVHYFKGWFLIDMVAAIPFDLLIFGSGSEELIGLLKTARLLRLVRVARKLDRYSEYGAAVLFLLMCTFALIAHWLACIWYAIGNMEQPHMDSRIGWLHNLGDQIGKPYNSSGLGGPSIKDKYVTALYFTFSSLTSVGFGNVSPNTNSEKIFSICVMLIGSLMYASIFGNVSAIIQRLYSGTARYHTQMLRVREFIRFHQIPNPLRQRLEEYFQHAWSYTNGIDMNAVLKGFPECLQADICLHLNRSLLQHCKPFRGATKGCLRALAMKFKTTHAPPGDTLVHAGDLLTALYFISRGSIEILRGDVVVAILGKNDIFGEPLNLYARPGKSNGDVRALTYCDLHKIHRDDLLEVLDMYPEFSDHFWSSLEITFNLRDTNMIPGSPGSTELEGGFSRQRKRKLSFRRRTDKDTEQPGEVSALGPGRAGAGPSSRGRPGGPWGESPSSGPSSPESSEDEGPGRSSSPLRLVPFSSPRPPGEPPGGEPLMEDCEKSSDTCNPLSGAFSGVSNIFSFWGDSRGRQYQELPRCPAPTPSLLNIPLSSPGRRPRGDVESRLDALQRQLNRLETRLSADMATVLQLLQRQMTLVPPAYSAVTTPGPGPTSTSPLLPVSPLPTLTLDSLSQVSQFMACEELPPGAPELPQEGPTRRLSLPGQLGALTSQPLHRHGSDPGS

Compound | hERG current change (%, negative = inhibition) at 1uM
CN(C)c1ccc(NC(=O)c2cccc(C(=O)Nc3ccc(N(C)C)cc3)n2)cc1 | -1.63%
CCN1CCN(C(CNS(=O)(=O)c2ccc(Cl)cc2)c2ccccc2)CC1 (centres unmarked) | -35.6%
Nc1nnc(SCc2nc3scc(-c4ccccc4)c3c(=O)[nH]2)s1 | 15.6%
O=C(COC(=O)CCS(=O)(=O)c1ccc(Cl)cc1)NC1CCCCC1 | 5.91%
O=C(NN1C(=O)NC2(CCCCC2)C1=O)c1ccc(Cl)c(Cl)c1 | -2.79%
COc1ccccc1CNC(=O)C(=O)NCC1OCCN1C(=O)c1cccs1 (centres unmarked) | 18.7%
Cc1ccc(OCC(=O)N2CCCC(CCC(=O)N(C)CCc3ccccn3)C2)cc1 (centres unmarked) | 14.3%
CCc1ccc(NC(=O)COC(=O)/C=C/c2c(C)nn(C3CCS(=O)(=O)C3)c2Cl)cc1 (centres unmarked) | 21.7%
CC1CCC2(CC1)NC(CO)(CO)CO2 (centres unmarked) | 11.2%
OCCCC1CCCCN1Cc1nc(Cc2ccccc2Cl)no1 (centres unmarked) | -65.5%
O=C1c2ccccc2C(Nc2ccc3c(c2)OCCO3)N1Cc1ccc2c(c1)OCO2 (centres unmarked) | 4.35%
Nc1nc(Sc2c([N+](=O)[O-])cc(C(F)(F)F)cc2[N+](=O)[O-])n[nH]1 | 4.93%
CN1CCN(CCC(=O)Nc2cccc(F)c2)CC1 | 13%
O=c1[nH]c(SCc2cccc(Cl)c2)nc2[nH]ncc12 | 8.82%
COC(=O)c1ccc(COC(=O)Cc2n[nH]c(=O)c3ccccc23)cc1 | 7.76%
COc1ccc(C2c3c(oc4ccccc4c3=O)C(=O)N2c2ccc(C)cn2)cc1OC (centres unmarked) | -0.607%
COc1ccc(N2C(=O)C3ON(C4SC(=S)N(C)C4(C)C)C(c4ccc(Cl)cc4)C3C2=O)cc1 (centres unmarked) | 2.68%
Cc1cc(C)cc(OCC(=O)N(Cc2ccco2)c2c(N)n(Cc3ccccc3)c(=O)[nH]c2=O)c1 | 4.97%
COC(=O)c1cccc(NC(=O)c2cnccn2)c1 | 11.1%

Compound | hERG current change (%, negative = inhibition) at 1uM
COc1ccc(OC)c(/C=c2\sc3nc(-c4cccs4)nn3c2=O)c1 | 10.6%
CCOC(=O)N1CCC(=C(C#N)C(=O)Nc2cc(OC)ccc2OC)CC1 | 15.5%
CCCOc1ccc(NC(=O)C2CC(=O)N(C)C(=Nc3cccc(OC)c3)S2)cc1 (centres unmarked) | 11.5%
COc1ccccc1-c1nc2cc(Cl)ccc2c(=O)n1O | 18%
COc1cccc(/C=C/C(=O)NCc2ccc(S(N)(=O)=O)cc2)c1 | 4.85%
O=C(Nc1ccc(N2CCCC2)cc1)c1ccccc1F | 15.8%
COC(=O)c1c(C(=O)OC)c(-c2ccc(F)cc2)n2c1CSC2 | 8.67%
O=c1oc2ccc3ccccc3c2cc1-c1nnc(-c2cccs2)o1 | 4.71%
CS(=O)(=O)O.O=C(O)c1ccc2c(c1)c1c3n2CCNC3CCC1 (centres unmarked) | 18.5%
Cc1ccc(C(=O)NN2C(=O)C3C4C=CC([C@@H]3C2=O)C42CC2)cc1 (some centres unmarked) | 14.2%
COC(=O)Cn1c(=O)oc2ccc(C)cc21 | 7.8%
Cc1ccc(NC(=O)Cc2c(C(=O)O)n(C)c3ccccc23)cc1F | 12.5%
COc1ccc2c(c1)O[C@@H](c1cccc(C(F)(F)F)c1)[C@H](OC(=O)N[C@H]1CCCc3ccccc31)C2=O | 16.1%
CCOc1ccc(-n2cnc3sc4c(c3c2=O)CCCC4)cc1 | 2.61%
Cc1ccc(CN2CCN(C/C=C/c3ccc(F)cc3)CC2CCO)o1 (centres unmarked) | -0.0683%
CCN1CCC(NC(=O)Nc2cc(Cl)ccc2OC)CC1 | 15.8%
COc1ccc([C@H]2CC(=O)C=C(c3ccc(OC)c(F)c3)C2)cc1 | 8.31%
CCN(CC)C(=O)C1CCCN(Cc2ccc3ccccc3c2)C1 (centres unmarked) | 11.2%
COc1ccc2cc3c(N)nn(C(=O)Cc4c[nH]c5ccccc45)c3nc2c1 | 11.8%

Compound | hERG current change (%, negative = inhibition) at 1uM
COC(=O)C1CN(S(=O)(=O)c2ccc(NC(C)=O)cc2)CCS1 (centres unmarked) | 14.3%
O=C(O)C1CCN(c2ncccn2)CC1 | 3%
CCCCOc1ccc(C(=O)NCC(=O)N2CCN(Cc3ccc4c(c3)OCO4)CC2)cc1 | 7.32%
O=C(/C=C/c1ccnc2ccccc12)c1cccs1 | 9.46%
Cc1ccc(C(=O)NCCNC(=O)CN2CCCC2)cc1 | 10.4%
COc1ccc(C2=NCCc3cc(OC)c(OC)cc32)cc1 | -3.21%
CCOc1nc(Nc2ccc(OC)c(Cl)c2)nc(N2CCN(c3ccc(OC)cc3)CC2)n1 | 5.22%
O=c1[nH][nH]c(-c2ccccc2)c1C=Nc1ccccc1Cl | 12.5%
Cc1no[n+]([O-])c1COc1ccccc1/C=C1\NC(=S)NC1=O | 3.8%
Clc1ccc(CSc2nnc(NC3=NCCCCC3)s2)cc1 | 5.49%
CCC(=O)N(C1=C(NC(C)C)C(=O)c2ccccc2C1=O)C(C)C | 3.16%
O=C(O)c1ccccc1C(=O)NC1Cc2ccccc2C1 | 5.23%
CC(C)(C)OC(=O)N1CCCN(C(=O)c2ccc(Cl)cc2)CC1 | 10.9%
COc1ccc(CCNC(=O)CN(c2cc(C)cc(C)c2)S(=O)(=O)c2c(C)noc2C)cc1OC | 13.9%
COc1cccc(N(CC(=O)NC2CCCCC2)C(=O)CCC(=O)Nc2nc(C)cs2)c1 | 4.12%
CC(=O)c1cccc(NC(=O)N2CCCC2C(=O)Nc2cccc(C)c2C)c1 (centres unmarked) | 10.1%
O=C1C=C(NCc2ccc3c(c2)OCO3)CC(c2ccccc2)C1 (centres unmarked) | -81.9%
Nc1c2c(nc3ccn(Cc4ccccc4)c(=O)c13)CCC2 | -59%

— article PMC4336329 (PLoS ONE, 2015)
